Experimental data published in the supplement of paper PMC4604168 (melanoma cell lines).
The other results are listed elsewhere or left out. Repeats are few or missing, and single values can be far off.

Each compound was assayed on A2058 (assay: cell count relative to DMSO control; melanoma cells; higher = more viable cells). Details: library dose: low library concentration; 72 h.
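Also: cell number obtained by counting DAPI-stained nuclei in high-throughput microscope images with image analysis software, screen run in 1,536-well plates.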

Compound | cell count [%]
O=C1NC(=O)/C(=C/c2ccc(-c3ccc(F)cc3O)o2)S1 + c1cc(-c2cnn3cc(-c4ccc(OCCN5CCCCC5)cc4)cnc23)ccn1 [Dorsomorphin] (first compound 1 µM, partner dose 0.4 µM) | 103
COc1cc2ncnc(Nc3ccc(Oc4ccccc4)cc3)c2cc1OC + Oc1nc(-c2ccc(C(F)(F)F)cc2)nc2c1CSCC2 [XAV939] (first compound 2 µM, partner dose 2 µM) | 105
O=C1NC(=O)/C(=C/c2ccc(-c3ccc(F)cc3O)o2)S1 + COc1cc(N2CCC(N3CCN(C)CC3)CC2)ccc1Nc1ncc(Cl)c(Nc2ccccc2S(=O)(=O)C(C)C)n1 [NVP-TAE684] (first compound 1 µM, partner dose 0.08 µM) | 74.9
CCN(CC)CCCCNc1ncc2cc(-c3cc(OC)cc(OC)c3)c(NC(=O)NC(C)(C)C)nc2n1 + c1cc(-c2cnn3cc(-c4ccc(OCCN5CCCCC5)cc4)cnc23)ccn1 [Dorsomorphin] (first compound 0.1 µM, partner dose 0.4 µM) | 100
O=C1NC(=O)/C(=C/c2ccc(-c3ccc(F)cc3O)o2)S1 + Oc1nc(-c2ccc(C(F)(F)F)cc2)nc2c1CSCC2 [XAV939] (first compound 1 µM, partner dose 2 µM) | 82.4
COc1ccc2c(c1)CCC1C2CCC2(C)C(NCCCCCCN3C(=O)C=CC3=O)CCC12 (stereo not drawn) + CC(C)CCN1c2nc(Nc3cc(F)c(O)c(F)c3)ncc2N(C)C(=O)C1C [BID1870] (first compound 0.4 µM, partner dose 0.2 µM) | 87.2
c1cc(-c2cnn3cc(-c4ccc(OCCN5CCCCC5)cc4)cnc23)ccn1 [Dorsomorphin] + Cn1cc(/C=C2\C(=O)Nc3cccnc32)c2ccccc21 [GW441756] (first compound 0.4 µM, partner dose 0.4 µM) | 103
COc1cc(N2CCC(N3CCN(C)CC3)CC2)ccc1Nc1ncc(Cl)c(Nc2ccccc2S(=O)(=O)C(C)C)n1 + O=c1cc(-c2cccc3c2Sc2ccccc2S3)oc(N2CCOCC2)c1 [KU55933] (first compound 0.08 µM, partner dose 1 µM) | 85.4
COc1ccc2c(c1)CCC1C2CCC2(C)C(NCCCCCCN3C(=O)C=CC3=O)CCC12 (stereo not drawn) + O=S(=O)(c1ccccc1)N(CC(F)(F)F)c1ccc(C(O)(C(F)(F)F)C(F)(F)F)cc1 [T0901317] (first compound 0.4 µM, partner dose 1.4 µM) | 83.5
O=C(O)C(=O)Nc1sc2c(c1C(=O)O)CCNC2 + CC(C)CCN1c2nc(Nc3cc(F)c(O)c(F)c3)ncc2N(C)C(=O)C1C [BID1870] (first compound 1.66667 µM, partner dose 0.2 µM) | 104
COc1ccc(COc2ccc(Cc3cnc(N)nc3N)cc2OC)cc1 + Oc1nc(-c2ccc(C(F)(F)F)cc2)nc2c1CSCC2 [XAV939] (first compound 1 µM, partner dose 2 µM) | 72
Oc1cc(-c2nc(-c3ccccc3)[nH]c2-c2ccncc2)ccc1Cl + c1cc(-c2cnn3cc(-c4ccc(OCCN5CCCCC5)cc4)cnc23)ccn1 [Dorsomorphin] (first compound 0.2 µM, partner dose 0.4 µM) | 109
COc1ccc(COc2ccc(Cc3cnc(N)nc3N)cc2OC)cc1 + COc1cc(N2CCC(N3CCN(C)CC3)CC2)ccc1Nc1ncc(Cl)c(Nc2ccccc2S(=O)(=O)C(C)C)n1 [NVP-TAE684] (first compound 1 µM, partner dose 0.08 µM) | 90.8
COc1ccc(-c2ccc3c(N4CCOCC4)nc(N4C[C@@H](C)O[C@@H](C)C4)nc3n2)cc1CO + CC(C)CCN1c2nc(Nc3cc(F)c(O)c(F)c3)ncc2N(C)C(=O)C1C [BID1870] (first compound 0.02 µM, partner dose 0.2 µM) | 106
O=C(O)C(=O)Nc1sc2c(c1C(=O)O)CCNC2 + CCCCCCCCCCCC1=C(O)C(=O)C=C(O)C1=O [Embelin] (first compound 1.66667 µM, partner dose 1.2 µM) | 94.4
N#Cc1c(O)c2c(-c3ccc(-c4ccccc4O)cc3)csc2[nH]c1=O + O=C1NC(=O)/C(=C/c2ccc(-c3ccc(F)cc3O)o2)S1 [AS252424] (first compound 2 µM, partner dose 1 µM) | 99.2
COc1ccc(COc2ccc(Cc3cnc(N)nc3N)cc2OC)cc1 + O=c1cc(-c2cccc3c2Sc2ccccc2S3)oc(N2CCOCC2)c1 [KU55933] (first compound 1 µM, partner dose 1 µM) | 108
COC(=O)c1sccc1S(=O)(=O)Nc1ccc(Nc2ccccc2)cc1OC + Cc1cc([N+](=O)[O-])ccc1NS(=O)(=O)c1cc(Cl)ccc1Cl [FH535] (first compound 1 µM, partner dose 1 µM) | 101
